# Experimental data: PubChem BioAssay AID588855 (National Center for Advancing Translational Sciences (NCATS), 2011)
# Among all 410,000 compounds or so, about 5,000 (1.2%) were called active. Inconclusive results, whose numbers are uncertain, are shown with a selection of clear calls. The call rests on the fitted dose curve; in most records, active means well fitted inhibition curve with a large enough effect; inconclusive means small, poorly fitted or top-dose-only effect; inactive means no such curve, though single readings can be large or run the other way. A potency beside an inconclusive call is a rough fit, not a confirmed value.
# Assay: qHTS for Inhibitors of TGF-b; further: nearly all actives have a fitted effect of over 65% in size
# Settings: HepG2 CAGA-GFP TGF-b/SMAD3 reporter, GFP fluorescence, 18 h, TGF-beta stimulated, 500 pg/mL final; series mostly up to 46.1 µM; activity, negative = inhibition: at the top concentration
# Summary of the method: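 Read-out: total well GFP (ex488/em500-530) summed from mean per-cell fluorescence. Cells: HEPG2 CAGA-GFP, 1% FBS DMEM, 18 h at 37 degrees C with 500 pg/mL final TGF-beta. Unstimulated wells served as the full-inhibition control; stimulated DMSO wells = 0%.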
# On the % scale 0 is the no-effect control and ±100 the full control effect; potency means the concentration at half of the fitted maximal effect; tags describe the fitted curve by direction and shape.
SMILES,Potency,"activity, negative = inhibition"
O=C(CSc1nnc(CNC(=O)c2ccccc2)n1-c1cccc(Cl)c1)Nc1ccccc1F,"inconclusive: 14.1 µM [inhibitor, single point]",
CC(C)[C@H]1COCCS(=O)(=O)N1Cc1ccccc1-c1cccc(Cl)c1,"inconclusive: 35.5 µM [inhibitor, single point]",
CCOc1ccc(NC(=O)CN(C)C(=O)CC(NC(=O)c2ccccc2)c2ccccc2)cc1OCC (stereo not drawn),,inactive: -5.96%
Clc1cccc(Nc2ncnc3ccc(Br)cc23)c1,"inconclusive: 35.5 µM [inhibitor, single point]",
O=C(CCC(=O)Nc1ccc(Br)cc1)N/N=C/c1ccccc1F,,inactive: -25.2%
Cc1ccc(C)c(N2CCN(C(=O)CCc3nc(-c4ccccc4C)no3)CC2)c1,"inconclusive: 22.4 µM [inhibitor, single point]",
CCOC(=O)C(NC(=O)CC(C)C)(Nc1sc(C)c(CC)c1C#N)C(F)(F)F (stereo not drawn),,inactive: -16.7%
Cc1ccc2nc(C(C)(C)C)c(Cc3cccc(F)c3)n2c1,"inconclusive: 25.1 µM [inhibitor, single point]",
COc1ccc(OCC(=O)Nc2ccc3c(c2)nc(CCN2CCCCC2)n3C)cc1,,inactive: -3.1%
Cc1noc(-c2ccc(Cl)cc2)c1C(=O)O/N=C(\N)c1ccc(C(C)(C)C)cc1,"inconclusive: 20 µM [inhibitor, single point]",
O=C(NCC1OCCc2ccccc21)c1ccc(NC(=O)c2ccc(Cl)cc2)cc1 (stereo not drawn),"inconclusive: 4.47 µM [inhibitor, single point]",
Oc1ccccc1C1=Nc2ccccc2N=C(c2ccco2)C1,,inactive: -9.13%
COc1ccc(C#Cc2cnc3c(c2)C(=O)N([C@H](C)CO)C[C@@H](C)[C@H](CN(C)C(=O)CN(C)C)O3)cc1,,inactive: 14.2%
O=C(Cn1c(=O)n2ncnc2c2c3c(sc21)CCCC3)c1ccccc1,"inconclusive: 3.55 µM [inhibitor, partial curve, poor fit]",
CCOC(=O)c1ccc(NC(=O)CN2c3ccccc3S(=O)(=O)c3ccccc32)cc1,active: 11.2 µM,
Cc1cc(SCC(=O)N2CCN(C(=O)c3ccco3)CC2)c(C)cc1Br,"inconclusive: 35.5 µM [inhibitor, single point]",
Cc1ccc(CNc2ncnc3c2nc2n3CCCC2)cc1,"inconclusive: 11.2 µM [inhibitor, partial curve, poor fit]",
Nc1ccc(C(=O)OCc2nc3c(ccc4ccccc43)[nH]2)cc1,"inconclusive: 11.2 µM [inhibitor, single point]",
O=C1NC(C(=O)O)=CC(c2ccc([N+](=O)[O-])cc2)N1 (stereo not drawn),,inactive: -9.55%
Cc1cccc(-n2c(SCC(N)=O)nc3c(c2=O)C2(CCCCC2)Cc2ccccc2-3)c1,"inconclusive: 22.4 µM [inhibitor, single point]",
CC(C)C(=O)NCCc1nc(-c2ccc(Cl)cc2)no1,,inactive: -3.52%
Cc1ccc(C23CC4CC(CC(CC(=O)N5CCOCC5)(C4)C2)C3)cc1,"inconclusive: 25.1 µM [inhibitor, single point]",
Cc1[nH]n(-c2ccccc2)c(=O)c1N=Nc1ccccc1O,"inconclusive: 17.8 µM [inhibitor, partial curve, poor fit]",

SMILES,Potency,"activity, negative = inhibition"
CCn1c(=O)c2cc(C(=O)N(CC(C)C)CC(C)C)sc2c2ccccc21,"inconclusive: 0.0891 µM [inhibitor, full curve, poor fit]",
CCC1(C)Cc2c(sc3c2c(=O)n(C)c2nnc(SCCc4ccccc4)n32)CO1 (stereo not drawn),,inactive: -19.6%
Cc1ccc(S(=O)(=O)N(CC(=O)Nc2cccc([N+](=O)[O-])c2)C2CCCCC2)cc1,"inconclusive: 15.8 µM [inhibitor, partial curve, poor fit]",
COc1cc(CNCCc2ccc(S(N)(=O)=O)cc2)ccc1OCc1ccc(Cl)cc1,"inconclusive: 35.5 µM [inhibitor, single point]",
Cc1nc(-c2cccc(NC(=O)c3ccc(-n4cccn4)cc3)c2)cs1,"inconclusive: 35.5 µM [inhibitor, partial curve, poor fit]",
O=C(Cc1ccc(Cl)cc1)SCc1ccccc1,,inactive: -0.761%
Cc1c(Cl)cccc1NC(=S)N1CCCN(Cc2ccc(F)cc2)C1,"inconclusive: 31.6 µM [inhibitor, single point]",
Cc1ccc(S(=O)(=O)N/N=C\c2ccccc2OCc2ccccc2)cc1,"inconclusive: 17.8 µM [inhibitor, partial curve, poor fit]",
COc1ccc(CNC(=O)CN2C(=O)COc3ccc(S(=O)(=O)NC4CCCC4)cc32)cc1,inactive,
OCCN(Cc1ccccc1)Cc1ccc(Cl)cc1Cl,"inconclusive: 11.2 µM [inhibitor, single point]",
c1csc(-c2nc3ccccn3c2NC2CCCCC2)c1,,inactive: 2.4%
COc1ccccc1NC(=O)CSc1nnc2c3ccccc3n(C(C)C)c2n1,,inactive: -3.03%
COc1ccc(/C=C\c2onc(C)c2S(=O)(=O)N2CCC(C(=O)Nc3cccc(Cl)c3)CC2)cc1,"inconclusive: 35.5 µM [inhibitor, single point]",
COc1ccc(CCNC(=O)CCc2c(C)nc3cc(-c4ccccc4OC)nn3c2C)c(OC)c1,"inconclusive: 35.5 µM [inhibitor, single point]",
O=c1c2ccccc2ncn1-c1ccc([N+](=O)[O-])cc1[N+](=O)[O-],"inconclusive: 15.8 µM [inhibitor, single point]",
Cc1cc(C)cc(Nc2cc(C)nc3nncn23)c1,"inconclusive: 8.91 µM [inhibitor, partial curve, poor fit]",
CCCOc1ccc(C(=O)CCN2CCN(C(=O)OCC)CC2)cc1,active: 15.8 µM,
Oc1ccc(C[C@H]2CNC(=S)N2CC2CCCN2C[C@H](Cc2ccc(O)cc2)N2C[C@H](Cc3ccccc3)N(CCc3ccccc3)C2=S)cc1 (stereo partly drawn),"inconclusive: 12.6 µM [inhibitor, single point]",
COc1ccc(-c2nc(=S)c3c(n2CCN2CCOCC2)CC(C)(C)OC3)cc1,"inconclusive: 6.31 µM [inhibitor, single point]",
Cc1noc2ncnc(N3CCCCC3)c12,,inactive: 1.56%
O=C(Nc1ccc(F)c(Cl)c1)C1Cc2c(-c3ccco3)ccnc2O1 (stereo not drawn),active: 12.6 µM,
COc1ccc(-c2c(C#Cc3ccsc3)c3cc(-c4ccc5[nH]ccc5c4)ccc3n2C)cc1,,inactive: 0.913%
CCCCSCCCNC(=O)c1cn(CC)c2ccc(S(=O)(=O)N3CCCCCC3)cc2c1=O,"inconclusive: 6.31 µM [inhibitor, partial curve, poor fit]",

SMILES,Potency,"activity, negative = inhibition"
COc1ccc(OCCn2c(C)nc3cc(C)c(C)cc32)cc1,"inconclusive: 12.6 µM [inhibitor, single point]",
O=C1C(Cl)=C(Nc2cccc(O)c2)C(=O)N1Cc1ccccc1,"inconclusive: 35.5 µM [inhibitor, single point]",
CCN(CC)S(=O)(=O)c1ccc(N/N=C(\C)c2ccc3c(c2)OCO3)c([N+](=O)[O-])c1,,inactive: -1.63%
COc1ccccc1NS(=O)(=O)c1cc(N2Cc3ccccc3C2=N)ccc1N1CCOCC1,"inconclusive: 17.8 µM [inhibitor, partial curve, poor fit]",
Clc1ccc(Cn2ncc3c(NCc4ccco4)ncnc32)c(Cl)c1,"inconclusive: 14.1 µM [inhibitor, single point]",
COc1cccc(N2C(=O)Nc3ccccc3C2(O)C(=O)NCc2ccc3c(c2)OCO3)c1 (stereo not drawn),"inconclusive: 0.631 µM [inhibitor, partial curve, poor fit]",
COc1ccc(NC(=O)N(Cc2ccc(C)cc2)Cc2ccccn2)c(OC)c1,"inconclusive: 6.31 µM [inhibitor, single point]",
CCc1ccc(NC(=O)C(C)Sc2ccc(S(=O)(=O)N3CCN(C)CC3)cn2)cc1 (stereo not drawn),"inconclusive: 22.4 µM [inhibitor, single point]",
COC(=O)c1ccccc1NC(=S)NC(C)=O,"inconclusive: 3.16 µM [inhibitor, single point]",
O=C(NCC(c1ccco1)N1CCc2ccccc2C1)c1cccc(Br)c1 (stereo not drawn),,inactive: -12.5%
O=C(NC(=S)Nc1ccc(Oc2ccccc2)cc1)c1ccc(Cl)cc1,"inconclusive: 10 µM [inhibitor, partial curve]",
Cc1cc(C)cc(C(=O)N(c2ccccn2)C(C)c2ccco2)c1 (stereo not drawn),,inactive: 9.76%
CCCn1c(=N)c(C(=O)NC2CCCC2)cc2c(=O)n3cccc(C)c3nc21,inactive,
CCCCn1c(N)c(N(CCOC)C(=O)c2cc(C)oc2C)c(=O)[nH]c1=O,"inconclusive: 31.6 µM [inhibitor, single point]",
CCC(C)c1ccc(O)c(NC(=O)c2cccnc2)c1 (stereo not drawn),,inactive: -11%
O=C1/C(=C/c2ccccc2F)SC(=S)N1CCC(=O)N1CCCCC1CCO (stereo not drawn),"inconclusive: 14.1 µM [inhibitor, single point]",
COCCNC(=O)c1cc2sc3ccccc3c2s1,,inactive: 11.7%
Cc1ccccc1CN1C(=O)[C@H]2Cc3c([nH]c4ccccc34)C(C)(C)N2C1=O,"inconclusive: 12.6 µM [inhibitor, partial curve, poor fit]",
COc1ccc(-c2c(C)nn3c(N4CCN(c5ccccc5)CC4)cc(C)nc23)cc1OC,"inconclusive: 6.31 µM [inhibitor, partial curve, poor fit]",
CCC(C)(C)NC(=O)C(c1ccc(OC)cc1)N(C(=O)CCC(=O)Nc1cc(C)on1)c1cccc(F)c1 (stereo not drawn),,inactive: -9.57%
Cc1cc(Cl)ccc1OCC(=O)N1CCCCC1,"inconclusive: 35.5 µM [inhibitor, single point]",
O=C(CCc1ccccc1)NC1(Cc2ccccc2)CCN(CCCc2ccccc2)C1=O (stereo not drawn),active: 12.6 µM,
